Test results: PubChem BioAssay AID1345082 (National Center for Advancing Translational Sciences (NCATS), 2018)
Screen size: about 94,000 compounds; about 4,000 (4.3%) were called active. The inconclusive results got no clear call from the source; some entries with a clear call stand among them for comparison. Calls follow the shape of the dose curve; as a rule, active = well fitted inhibition curve with a large enough effect; inconclusive = small, poorly fitted or top-dose-only effect; inactive = no such curve, though single readings can be large or run the other way. Potencies beside an inconclusive call are fits to weak or partial responses and may not hold up.
Potency is read from the fitted curve at half-maximal effect; tags tell the direction and shape of the fitted curve.

Test: Cytotoxic Profiling in NIH 3T3 Cell Line of Diverse Libraries Using Quantitative High-Throughput Screening; also: nearly all actives have a fitted effect of over 55% in size
Conditions: NIH 3T3 viability, CellTiter-Glo ATP luminescence, 48-72 h; series mostly up to 96.7 µM
In short: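 First NIH 3T3 cells are plated at 400 cells/well; next compound is pinned in; then plates incubate 48 or 72 hr at 37 °C; finally CellTiter-Glo is added and luminescence read after 10 min.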
In the case of `CC(=O)N1CC2(CCN(C(=O)CCC(=O)O)C2)Cc2ccccc21` (stereo not given), the Potency is reported as “inactive”. In the case of `COC(=O)[C@@H]1Cc2c([nH]c3ccccc23)[C@@H]2C[C@@H](NCCCn3ccnc3)C[C@@H](c3ccc(F)c(F)c3)N12`, the Potency is reported as active: 28.2 µM. With `CC(=O)Nc1ccc(CC(=O)N2CCC3(CCC(=O)N(Cc4ccccc4)CC3)CC2)cc1` the Potency was inconclusive: 70.8 µM [inhibitor, single point]. With `CCNC(=O)NC1=N[C@@]23CO[C@H](c4ccccc4)C[C@@H]2CC(=O)[C@H]3S1` the Potency was “inactive”. With `O=C(C1CCCCC1)N1CC2CC(C1)[C@H]1CCCC(=O)N1C2` (stereo not given in full) the Potency was “inactive”. For `COc1cccc(-c2cc(C(=O)Nc3cccc(Cl)c3)c3cnn(C)c3n2)c1`, the Potency was inconclusive: 44.7 µM [inhibitor, partial curve, poor fit]. In the case of `COC(=O)[C@H](Cc1ccc(OC)cc1)NC(=O)[C@@H]1CN(C(=O)NC(C)C)CCN1C(=O)C1CCCCC1`, the Potency is reported as “inactive”. With `Cc1ccc(S(=O)(=O)N2CCCC2C(=O)N2CCC(c3ccccc3)CC2)cc1` (stereo not given) the Potency was inconclusive: 50.1 µM [inhibitor, partial curve, poor fit]. For `COc1ccc(OCC2CC3(CCCCC3)CN2C(=O)Cc2cccc(F)c2)cc1` (stereo not given), the Potency was active: 39.8 µM. In the case of `Cc1onc(-c2ccccc2)c1C(=O)N1CCCC2(CCOC2)C1` (stereo not given), the Potency is reported as “inactive”. With `Cc1ccc(C(=O)NC(C(=O)N2CCCCC2)C2CCN(S(=O)(=O)C(C)C)CC2)cc1` (stereo not given) the Potency was “inactive”. For `COc1ccc(N2CC3(COCC2=O)CN(c2ccc(C(F)(F)F)cn2)C3)cn1`, the Potency was active: 39.8 µM. For `CCc1nc2c(c(-c3ccc(O)cc3)n1)CN(Cc1ccc(OC(F)(F)F)cc1)CC2`, the Potency was inconclusive: 50.1 µM [inhibitor, partial curve, poor fit]. In the case of `COc1cccc(-c2ccc(CN3CCCC3C(=O)NC3CCCC3)cc2)c1` (stereo not given), the Potency is reported as inconclusive: 39.8 µM [inhibitor, partial curve, poor fit]. In the case of `O=C(C1CC1)N1CCn2c(nn(-c3ccncc3)c2=O)C1`, the Potency is reported as inconclusive: 89.1 µM [inhibitor, partial curve, poor fit]. With `O=C(C1CCCC1)N1Cc2ccccc2CC2(CCN(Cc3ccncc3)CC2)C1` the Potency was inconclusive: 11.2 µM [inhibitor, partial curve, poor fit]. For `CCn1nc(C)c(CNC(=O)C(c2ccc(F)cc2)N(C)C)c1C` (stereo not given), the Potency was “inactive”. In the case of `CC(C)c1cc(C(=O)N2CCCC(c3ccccc3)(c3ccccc3)C2)n(C)n1`, the Potency is reported as inconclusive: 50.1 µM [inhibitor, partial curve, poor fit]. For `Cc1nn(-c2ccccc2)c2c1C(C)N(C1CN(C(=O)Cc3ccc(F)cc3)C1)C2=O` (stereo not given), the Potency was inconclusive: 44.7 µM [inhibitor, partial curve]. In the case of `CN(Cc1ccccc1)C(=O)CC1CCN(C(=O)Nc2ccccc2)C1` (stereo not given), the Potency is reported as “inactive”. In the case of `CN(C)C[C@H]1O[C@@H](CO)[C@@H](O)[C@H]1N1CCCC1`, the Potency is reported as “inactive”. With `COc1ccccc1-c1cnc2n[nH]c(-c3ccc(F)cc3C)c2n1` the Potency was inconclusive: 63.1 µM [inhibitor, partial curve, poor fit]. For `O=C(c1ccccc1Cl)N1CCC(c2nn(-c3ccccn3)c(=O)[nH]2)CC1`, the Potency was “inactive”. With `Cc1ccc(CN2C(=O)NC3(CCN(C(=O)c4ccc(C(C)(C)C)cc4)C3)C2=O)cc1` (stereo not given) the Potency was inconclusive: 70.8 µM [inhibitor, partial curve, poor fit]. With `Cc1oc2ccn(Cc3ccccc3F)c(=O)c2c1C(=O)NCc1cccc(Cl)c1` the Potency was inconclusive: 39.8 µM [inhibitor, partial curve, poor fit]. In the case of `CC(C)NC(=O)C1CCN(c2nccc(Nc3ccccc3Cl)n2)CC1`, the Potency is reported as inconclusive: 44.7 µM [inhibitor, partial curve, poor fit]. In the case of `CC1(COc2ccccc2)COc2ccc(C(=O)NCc3cccc(F)c3)cc2N1` (stereo not given), the Potency is reported as inconclusive: 56.2 µM [inhibitor, partial curve, poor fit]. For `O=C1CC2(CCN(CC3CC3)CC2)Oc2ccccc2N1c1ccccc1`, the Potency was inconclusive: 50.1 µM [inhibitor, partial curve, poor fit]. For `O=C1NCCCCCCN(C(=O)Cc2cccnc2)[C@@H]2C[C@@H](c3nc(-c4cccnc4)no3)C[C@H]12`, the Potency was inconclusive: 44.7 µM [inhibitor, partial curve, poor fit]. For `CN1c2cc(C(=O)NCCCc3ccccc3)ccc2C(=O)N2CCCCC21` (stereo not given), the Potency was inconclusive: 79.4 µM [inhibitor, partial curve, poor fit]. With `CCOC(=O)C1CCCN(C(=O)c2ccc3oc(-c4ccncc4Cl)nc3c2)C1` (stereo not given) the Potency was inconclusive: 44.7 µM [inhibitor, partial curve, poor fit]. With `Cc1ccc(Nc2ccnc(N3CCCN(C(=O)C4CCCC4)C3)n2)cc1` the Potency was inconclusive: 28.2 µM [inhibitor, full curve, poor fit]. With `COCCn1c(=O)c2c(n1Cc1ccccc1)CN(Cc1cccnc1OC)CC2` the Potency was inconclusive: 89.1 µM [inhibitor, partial curve, poor fit]. With `O=S(=O)(c1cccs1)N1CCN(c2ccc3nnc(C4CC4)n3n2)CC1` the Potency was inconclusive: 50.1 µM [inhibitor, partial curve, poor fit]. For `O=C(NCc1ccccc1F)c1ccc2c(c1)CN(Cc1ccsc1)CCO2`, the Potency was inconclusive: 50.1 µM [inhibitor, single point]. In the case of `CCCOc1ccccc1C(C)Nc1nc(-c2cccnc2)nc2c1CNC2` (stereo not given), the Potency is reported as inconclusive: 56.2 µM [inhibitor, partial curve, poor fit]. With `CCCN(C)c1nccnc1OC1CCN(C(=O)C(CC)CC)C1` (stereo not given) the Potency was inconclusive: 28.2 µM [inhibitor, partial curve]. With `Cc1cccc(CNC(=O)c2ccc3c(c2)N(C)C2CCCN2C3=O)c1` (stereo not given) the Potency was inconclusive: 79.4 µM [inhibitor, partial curve, poor fit]. In the case of `CC(C)c1ccc(N2CC(C(=O)N(C)Cc3cnccn3)CC2=O)cc1` (stereo not given), the Potency is reported as “inactive”. In the case of `CC(C)(C)c1[nH]nc2c1C(c1ccnc3ccccc13)CC(=O)N2` (stereo not given), the Potency is reported as active: 31.6 µM.
